# Experimental data: the supplement of paper PMC8728848
# This is one part of the list.
# How the values were obtained:
# Experiment in all cases: glycan array binding signal (z-score within array); higher = stronger binding
# Conditions in all cases: glycan notation: IUPAC condensed, linker removed
# [1] = target: Neu5Ac(a2-6)Gal(b1-4)GlcNAc(b1-2)Man(a1-3)[GlcNAc(b1-4)][Neu5Ac(a2-6)Gal(b1-4)GlcNAc(b1-2)Man(a1-6)]Man(b1-4)GlcNAc(b1-4)GlcNAc
# How it was run: (§1)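 Glycan array data were curated from 3228 arrays in the Consortium for Functional Glycomics database and kept only where the protein sequence was available. Glycan names were converted to IUPAC-condensed notation, and columns mapping to the same glycan were averaged. The binding signal is a within-array Z-score, averaged across arrays of the same protein sequence at different concentrations or buffers and across linkers. Negative Z-scores can be read as non-binding.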
# [2] = target: Neu5Ac(a2-6)Gal(b1-4)GlcNAc(b1-2)Man(a1-3)[Man(a1-6)]Man(b1-4)GlcNAc(b1-4)GlcNAc
# How it was run: as §1
# [3] = target: Neu5Ac(a2-6)Gal(b1-4)GlcNAc(b1-2)Man(a1-3)[Neu5Ac(a2-3)Gal(b1-4)GlcNAc(b1-2)Man(a1-6)]Man(b1-4)GlcNAc(b1-4)GlcNAc
# How it was run: as §1
# [4] = target: Neu5Ac(a2-6)Gal(b1-4)GlcNAc(b1-2)Man(a1-3)[Neu5Ac(a2-6)Gal(b1-4)GlcNAc(b1-2)Man(a1-6)]Man(b1-4)GlcNAc(b1-4)GlcNAc
# How it was run: as §1
# [5] = target: Neu5Ac(a2-6)Gal(b1-4)GlcNAc(b1-2)Man(a1-3)[Neu5Ac(a2-6)Gal(b1-4)GlcNAc(b1-2)Man(a1-6)]Man(b1-4)GlcNAc(b1-4)[Fuc(a1-6)]GlcNAc
# How it was run: as §1
# [6] = target: Neu5Ac(a2-6)Gal(b1-4)GlcNAc(b1-2)Man(a1-6)Man(b1-4)GlcNAc(b1-4)GlcNAc
# How it was run: as §1
# [7] = target: Neu5Ac(a2-6)Gal(b1-4)GlcNAc(b1-2)Man(a1-6)[Gal(b1-4)GlcNAc(b1-2)Man(a1-3)]Man(b1-4)GlcNAc(b1-4)GlcNAc
# How it was run: as §1
# [8] = target: Neu5Ac(a2-6)Gal(b1-4)GlcNAc(b1-2)Man(a1-6)[GlcNAc(b1-2)Man(a1-3)]Man(b1-4)GlcNAc(b1-4)GlcNAc
# How it was run: as §1
# [9] = target: Neu5Ac(a2-6)Gal(b1-4)GlcNAc(b1-2)Man(a1-6)[Man(a1-3)]Man(b1-4)GlcNAc(b1-4)GlcNAc
# How it was run: as §1
# [10] = target: Neu5Ac(a2-6)Gal(b1-4)GlcNAc(b1-2)[Neu5Ac(a2-6)Gal(b1-4)GlcNAc(b1-4)]Man(a1-3)[GlcNAc(b1-4)][Neu5Ac(a2-6)Gal(b1-4)GlcNAc(b1-2)[Neu5Ac(a2-6)Gal(b1-4)GlcNAc(b1-6)]Man(a1-6)]Man(b1-4)GlcNAc(b1-4)GlcNAc
# How it was run: as §1
# [11] = target: Neu5Ac(a2-6)Gal(b1-4)GlcNAc(b1-2)[Neu5Ac(a2-6)Gal(b1-4)GlcNAc(b1-4)]Man(a1-3)[GlcNAc(b1-4)][Neu5Ac(a2-6)Gal(b1-4)GlcNAc(b1-4)Man(a1-6)]Man(b1-4)GlcNAc(b1-4)GlcNAc
# How it was run: as §1
# [12] = target: Neu5Ac(a2-6)Gal(b1-4)GlcNAc(b1-2)[Neu5Ac(a2-6)Gal(b1-4)GlcNAc(b1-6)]Man(a1-6)[Neu5Ac(a2-6)Gal(b1-4)GlcNAc(b1-2)Man(a1-3)][GlcNAc(b1-4)]Man(b1-4)GlcNAc(b1-4)GlcNAc
# How it was run: as §1
# [13] = target: Neu5Ac(a2-6)Gal(b1-4)GlcNAc(b1-3)Gal(b1-3)GlcNAc
# How it was run: as §1
# [14] = target: Neu5Ac(a2-6)Gal(b1-4)GlcNAc(b1-3)Gal(b1-4)GlcNAc
# How it was run: as §1
# [15] = target: Neu5Ac(a2-6)Gal(b1-4)GlcNAc(b1-3)Gal(b1-4)GlcNAc(b1-2)Man(a1-3)[Neu5Ac(a2-6)Gal(b1-4)GlcNAc(b1-3)Gal(b1-4)GlcNAc(b1-2)Man(a1-6)]GalNAc
# How it was run: as §1
# [16] = target: Neu5Ac(a2-6)Gal(b1-4)GlcNAc(b1-3)Gal(b1-4)GlcNAc(b1-3)Gal(b1-4)GlcNAc
# How it was run: as §1
# [17] = target: Neu5Ac(a2-6)Gal(b1-4)GlcNAc(b1-3)Gal(b1-4)GlcNAc(b1-3)Gal(b1-4)GlcNAc(b1-2)Man(a1-3)[Neu5Ac(a2-6)Gal(b1-4)GlcNAc(b1-3)Gal(b1-4)GlcNAc(b1-3)Gal(b1-4)GlcNAc(b1-2)Man(a1-6)]GalNAc
# How it was run: as §1
# [18] = target: Neu5Ac(a2-6)Gal(b1-4)GlcNAc(b1-3)Gal(b1-4)GlcNAc(b1-3)GalNAc
# How it was run: as §1
# [19] = target: Neu5Ac(a2-6)Gal(b1-4)GlcNAc(b1-3)Gal(b1-4)GlcNAc(b1-3)[Neu5Ac(a2-6)Gal(b1-4)GlcNAc(b1-3)Gal(b1-4)GlcNAc(b1-6)]GalNAc
# How it was run: as §1
# [20] = target: Neu5Ac(a2-6)Gal(b1-4)GlcNAc(b1-3)Gal(b1-4)GlcNAc(b1-6)[Gal(b1-3)]GalNAc
# How it was run: as §1
# [21] = target: Neu5Ac(a2-6)Gal(b1-4)GlcNAc(b1-3)Gal(b1-4)[Fuc(a1-3)]GlcNAc(b1-3)Gal(b1-4)[Fuc(a1-3)]GlcNAc
# How it was run: as §1
# [22] = target: Neu5Ac(a2-6)Gal(b1-4)GlcNAc(b1-3)GalNAc
# How it was run: as §1
# [23] = target: Neu5Ac(a2-6)Gal(b1-4)GlcNAc(b1-3)[Neu5Ac(a2-6)Gal(b1-4)GlcNAc(b1-6)]GalNAc
# How it was run: as §1
# [24] = target: Neu5Ac(a2-6)Gal(b1-4)GlcNAc(b1-6)GalNAc
# How it was run: as §1
# [25] = target: Neu5Ac(a2-6)Gal(b1-4)GlcNAc(b1-6)[Gal(b1-3)GlcNAc(b1-3)]Gal(b1-4)Glc
# How it was run: as §1
# [26] = target: Neu5Ac(a2-6)Gal(b1-4)GlcNAc(b1-6)[Gal(b1-3)]GalNAc
# How it was run: as §1
# [27] = target: Neu5Ac(a2-6)Gal(b1-4)GlcNAc6S
# How it was run: as §1
# Neu5Ac(a2-6)GalNAc = target: Neu5Ac(a2-6)GalNAc
# How it was run: as §1
# [28] = target: Neu5Ac(a2-6)GalNAc(b1-4)GlcNAc
# How it was run: as §1
# [29] = target: Neu5Ac(a2-6)GalNAc(b1-4)GlcNAc6S
# How it was run: as §1
# [30] = target: Neu5Ac(a2-6)GlcNAc(b1-4)GlcNAc
# How it was run: as §1
binder,measurement,setting,value
"EPL1 (Trichoderma atroviride), A0PCX2 (protein) MQLSNLFKLALFTAAVSADTVSYDTGYDDASRSLTVVSCSDGTNGLITRYHWQTQGQIPRFPYIGGAQAVAGWNSPNCGTCWKLTYSGKTIYVLAIDHTAAGFNIGLDAMNALTNGNAVALGRVSATASQVAVSNCGL",glycan array binding signal (z-score),[1],-0.464
same,glycan array binding signal (z-score),[2],-0.027
same,glycan array binding signal (z-score),[3],0.051
same,glycan array binding signal (z-score),[4],-0.013
same,glycan array binding signal (z-score),[5],0.022
same,glycan array binding signal (z-score),[6],-0.237
same,glycan array binding signal (z-score),[7],-0.305
same,glycan array binding signal (z-score),[8],-0.056
same,glycan array binding signal (z-score),[9],-0.436
same,glycan array binding signal (z-score),[10],-0.583
same,glycan array binding signal (z-score),[11],-0.299
same,glycan array binding signal (z-score),[12],-0.079
same,glycan array binding signal (z-score),[13],-0.53
same,glycan array binding signal (z-score),[14],-0.247
same,glycan array binding signal (z-score),[15],-0.089
same,glycan array binding signal (z-score),[16],-0.13
same,glycan array binding signal (z-score),[17],0.008
same,glycan array binding signal (z-score),[18],0.182
same,glycan array binding signal (z-score),[19],0.102
same,glycan array binding signal (z-score),[20],0.052
same,glycan array binding signal (z-score),[21],-0.291
same,glycan array binding signal (z-score),[22],-0.416
same,glycan array binding signal (z-score),[23],-0.474
same,glycan array binding signal (z-score),[24],-0.487
same,glycan array binding signal (z-score),[25],-0.453
same,glycan array binding signal (z-score),[26],-0.255
same,glycan array binding signal (z-score),[27],0.855
same,glycan array binding signal (z-score),Neu5Ac(a2-6)GalNAc,-0.036
same,glycan array binding signal (z-score),[28],-0.393
same,glycan array binding signal (z-score),[29],-0.356
same,glycan array binding signal (z-score),[30],-0.132
